Data on 13 sequences can be found in PMC5700166.

The list shows a part of the results, in another mix than the full data. The list includes weakly bound sequences.

What all share (assay): protein-binding microarray (PBM)
Common to all, as to settings: PBM: ~300 nM protein, 6 mM HEPES pH 7.8, 80 mM KCl, 0.5 mM EDTA, 0.5 mM EGTA, 6% glycerol, 35 ng/ul poly-dIdC, 1% milk, 1 h, room temperature; Ap Aiptasia and Nv Nematostella (sea anemones) / Co Capsaspora / Aq Amphimedon (sponge) / Dm Drosophila / Hu human; RHD is the Rel homology domain; high values mean tight binding; most listed sequences are background and not binding sites; double strand, one strand shown

Test [1] deals with T1, GST-Ap-NF-kB RHD (UniProt A0A913YAJ5).
T1 sequence: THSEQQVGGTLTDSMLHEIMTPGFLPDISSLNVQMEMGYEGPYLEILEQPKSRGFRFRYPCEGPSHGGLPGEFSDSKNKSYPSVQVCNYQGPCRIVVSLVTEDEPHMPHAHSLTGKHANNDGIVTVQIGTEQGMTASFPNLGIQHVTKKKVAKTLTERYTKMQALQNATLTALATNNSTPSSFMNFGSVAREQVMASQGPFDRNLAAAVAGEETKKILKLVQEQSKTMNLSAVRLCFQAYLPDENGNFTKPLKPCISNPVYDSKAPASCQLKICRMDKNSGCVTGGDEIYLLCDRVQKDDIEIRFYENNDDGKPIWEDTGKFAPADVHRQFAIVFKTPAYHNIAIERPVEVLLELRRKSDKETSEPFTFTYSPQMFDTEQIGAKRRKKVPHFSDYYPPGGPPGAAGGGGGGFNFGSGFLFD

The target in test [2] is T2, GST-Nv-NF-kB (Cys allele) (UniProt E5G601).
T2 sequence: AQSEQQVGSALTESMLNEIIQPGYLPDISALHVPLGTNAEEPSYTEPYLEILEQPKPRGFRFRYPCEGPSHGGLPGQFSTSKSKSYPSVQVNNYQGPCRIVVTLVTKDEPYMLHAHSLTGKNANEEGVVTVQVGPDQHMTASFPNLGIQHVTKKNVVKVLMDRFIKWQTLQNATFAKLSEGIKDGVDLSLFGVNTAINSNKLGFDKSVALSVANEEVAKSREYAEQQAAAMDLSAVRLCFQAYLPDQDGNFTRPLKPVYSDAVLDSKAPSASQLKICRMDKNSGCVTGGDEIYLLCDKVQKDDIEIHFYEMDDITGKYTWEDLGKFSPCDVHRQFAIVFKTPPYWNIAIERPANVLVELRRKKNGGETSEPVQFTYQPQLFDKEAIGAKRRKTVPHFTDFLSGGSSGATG

The target in test [3] is T3, GST-Co-NF-kB (UniProt F1ARL5).
T3 sequence: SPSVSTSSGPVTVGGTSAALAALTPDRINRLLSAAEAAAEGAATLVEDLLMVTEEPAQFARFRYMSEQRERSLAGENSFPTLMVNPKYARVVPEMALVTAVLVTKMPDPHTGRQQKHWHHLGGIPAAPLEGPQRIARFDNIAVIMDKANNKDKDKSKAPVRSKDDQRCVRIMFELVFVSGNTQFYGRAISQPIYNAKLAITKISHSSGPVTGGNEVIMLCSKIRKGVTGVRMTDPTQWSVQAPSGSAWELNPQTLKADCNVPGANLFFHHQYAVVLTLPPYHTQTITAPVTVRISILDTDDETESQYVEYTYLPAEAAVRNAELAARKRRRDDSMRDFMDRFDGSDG

Test [4] concerns the target T4, GST-Dm-Relish (UniProt Q94527).
T4 sequence: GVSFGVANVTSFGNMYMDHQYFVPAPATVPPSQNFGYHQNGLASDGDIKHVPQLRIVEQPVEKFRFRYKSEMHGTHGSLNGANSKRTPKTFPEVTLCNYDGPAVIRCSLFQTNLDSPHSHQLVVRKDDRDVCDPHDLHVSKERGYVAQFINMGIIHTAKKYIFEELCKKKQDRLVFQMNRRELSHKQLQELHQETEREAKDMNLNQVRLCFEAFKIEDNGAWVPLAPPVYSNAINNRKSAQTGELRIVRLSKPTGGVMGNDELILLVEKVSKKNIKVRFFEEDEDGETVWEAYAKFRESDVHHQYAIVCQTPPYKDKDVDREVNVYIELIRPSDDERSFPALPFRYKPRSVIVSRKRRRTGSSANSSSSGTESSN

Test [5] deals with T5, GST-Aq-NF-kB (UniProt A9Y5G7).
T5 sequence: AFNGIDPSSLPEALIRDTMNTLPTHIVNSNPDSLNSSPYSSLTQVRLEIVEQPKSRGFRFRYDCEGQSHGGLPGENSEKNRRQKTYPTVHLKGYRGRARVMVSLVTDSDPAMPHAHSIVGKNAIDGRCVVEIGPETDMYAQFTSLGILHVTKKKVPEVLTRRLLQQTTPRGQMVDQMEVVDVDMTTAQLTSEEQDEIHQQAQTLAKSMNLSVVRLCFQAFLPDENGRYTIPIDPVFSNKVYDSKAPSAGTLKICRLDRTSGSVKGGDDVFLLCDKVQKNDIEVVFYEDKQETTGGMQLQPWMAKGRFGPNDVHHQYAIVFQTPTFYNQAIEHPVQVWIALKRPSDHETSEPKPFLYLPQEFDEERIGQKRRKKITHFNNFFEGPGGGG

Take “CCGATTAACATCATTTCTGCTCGTGATGTTAATCGGGTCTTGATTCGCTTGACGCTGCTG”: the binding signal in test [1] was -0.603 z-score; in test [2] it was -0.684 z-score; in test [3], -0.0119 z-score; in test [4], 0.306 z-score; in test [5], -0.511 z-score.

As to “CCGATTAACATCAACCACGCATTTGATGTTAATCGGGTCTTGATTCGCTTGACGCTGCTG”, the binding signal is -0.222 z-score in test [1]; 0.455 z-score in test [2]; 0.152 z-score in test [3]; -0.165 z-score in test [4]; -0.469 z-score in test [5].

Turning to “CCGATTAACATCAGCGGTGATATTGATGTTAATCGGGTCTTGATTCGCTTGACGCTGCTG”, the binding signal in test [1] came out at 0.841 z-score; in test [2] it was 0.199 z-score; in test [3], 0.291 z-score; in test [4], 0.577 z-score; in test [5], 0.248 z-score.

For “CCGATTAACATCACATGGCGCTGTGATGTTAATCGGGTCTTGATTCGCTTGACGCTGCTG”, the binding signal is -0.375 z-score in test [1]; 0.0717 z-score in test [2]; -0.672 z-score in test [3]; 0.573 z-score in test [4]; -0.668 z-score in test [5].

Consider “CCGATTAACATCATTCTAGGGCGTGATGTTAATCGGGTCTTGATTCGCTTGACGCTGCTG”, for which the binding signal is 0.194 z-score in test [1]; -0.541 z-score in test [2]; 0.52 z-score in test [3]; -0.484 z-score in test [4]; -0.175 z-score in test [5].

“CCGATTAACATCAGCGTTTGGACTGATGTTAATCGGGTCTTGATTCGCTTGACGCTGCTG”: the binding signal in test [1] is -0.418 z-score; in test [2] it was -0.275 z-score; in test [3] it was -0.202 z-score; in test [4], -0.484 z-score; in test [5], -0.379 z-score.

Regarding “CCGATTAACATCAACTCTAAGACTGATGTTAATCGGGTCTTGATTCGCTTGACGCTGCTG”, the binding signal is -0.603 z-score in test [1]; -0.207 z-score in test [2]; -0.47 z-score in test [3]; -0.712 z-score in test [4]; -0.762 z-score in test [5].

Regarding “CCGATTAACATCAAGATTTTCCATGATGTTAATCGGGTCTTGATTCGCTTGACGCTGCTG”, the binding signal was -0.166 z-score in test [1]; 0.111 z-score in test [2]; -0.121 z-score in test [3]; -0.151 z-score in test [4]; 0.195 z-score in test [5].

“CCGATTAACATCAATTATTCAGCTGATGTTAATCGGGTCTTGATTCGCTTGACGCTGCTG”: the binding signal is -0.175 z-score in test [1]; -0.23 z-score in test [2]; -0.562 z-score in test [3]; -0.654 z-score in test [4]; -0.323 z-score in test [5].

Consider “CCGATTAACATCAGACTAGCCCATGATGTTAATCGGGTCTTGATTCGCTTGACGCTGCTG”, for which the binding signal in test [1] is 0.00459 z-score; in test [2], -1.04 z-score; in test [3] it was -0.0773 z-score; in test [4], -0.747 z-score; in test [5], -0.0607 z-score.

As to “CCGATTAACATCATGGATCAAGTTGATGTTAATCGGGTCTTGATTCGCTTGACGCTGCTG”, the binding signal is -0.435 z-score in test [1]; 0.0692 z-score in test [2]; -0.881 z-score in test [3]; -0.292 z-score in test [4]; -0.485 z-score in test [5].

In the case of “CCGATTAACATCAAATTTCCAGCTGATGTTAATCGGGTCTTGATTCGCTTGACGCTGCTG”, the binding signal in test [1] was 0.0526 z-score; in test [2], 0.143 z-score; in test [3], -0.103 z-score; in test [4] it was 0.603 z-score; in test [5], 0.331 z-score.

As to “CCGATTAACATCATTCGAATATGTGATGTTAATCGGGTCTTGATTCGCTTGACGCTGCTG”, the binding signal in test [1] is -1.14 z-score; in test [2], -0.654 z-score; in test [3] it was -0.379 z-score; in test [4], 0.165 z-score; in test [5] it was -0.668 z-score.
